Reference: PubChem BioAssay AID1745853 (National Center for Advancing Translational Sciences (NCATS), 2022)
Some of the results follow. Shown are side measurements of this screen, not its main read-out; they come without a call.

Legend:
Experiment in all cases: Primary Screen for Target Class Profiling of Small Molecule Inhibitors of Methyltransferases
[1] = biological target: Glycine N-methyltransferase (Homo sapiens) (UniProt Q14749); conditions: purified enzyme, MTase-Glo SAH luminescence; measured here: GNMT inhibition; at 40 µM; stronger effect = lower value
Summary of the method: (§1)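 Each enzyme was reacted with SAM and its substrate, with compounds tested once at 40 uM; SAH formed was read by MTase-Glo luminescence.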

[2] = biological target: Guanidinoacetate N-methyltransferase (Homo sapiens) (UniProt Q14353); conditions: purified enzyme, MTase-Glo SAH luminescence; measured here: GAMT inhibition; at 40 µM; stronger effect = lower value
Summary of the method: as §1

[3] = biological target: Histamine N-methyltransferase (Homo sapiens) (UniProt P50135); conditions: purified enzyme, MTase-Glo SAH luminescence; measured here: HNMT inhibition; at 40 µM; stronger effect = lower value
Summary of the method: as §1

[4] = biological target: Nicotinamide N-methyltransferase (Homo sapiens) (UniProt P40261); conditions: purified enzyme, MTase-Glo SAH luminescence; measured here: NNMT inhibition; at 40 µM; stronger effect = lower value
Summary of the method: as §1

[5] = biological target: Phenylethanolamine N-methyltransferase (Homo sapiens) (UniProt P11086); conditions: purified enzyme, MTase-Glo SAH luminescence; measured here: PNMT inhibition; at 40 µM; stronger effect = lower value
Summary of the method: as §1
% is scaled to controls: 0 for no effect and ±100 for the full control effect.

SMILES | activity change, negative = inhibition [1] | activity change, negative = inhibition [2] | activity change, negative = inhibition [3] | activity change, negative = inhibition [4] | activity change, negative = inhibition [5]
Cc1ccc(CNC(=O)CSc2nnc3n(Cc4ccc(F)cc4)c(=O)c4ccccc4n23)cc1 | 5.05% | 0% | 8.54% | 3.23% | 5.19%
CCOCCCN1C(=O)c2cc3sc(CC)cc3n2CC1(C)C(=O)NC1CCCCC1 (stereo not given) | -0.488% | 5.18% | 3.95% | 6.07% | -2.64%
CCCCc1c(-c2ccc(OC)cc2)[nH]c2nccnc12 | 1.07% | -5.85% | -0.648% | -20.2% | -11.9%
Cc1ccc(CN2C(=O)c3ccccc3CC2(C)C(=O)NC2CCC(C)CC2)cc1 (stereo not given) | 1.94% | 0.958% | 6.4% | -5.21% | -0.019%
Cc1ccc(Cn2c(=O)c3ccccc3n3c(=O)n(CC(=O)Nc4cccc(Cl)c4)nc23)cc1 | 6.84% | 0.505% | 11.8% | 9.33% | 8.58%
CC1CCC(NC(=O)Cn2c(=O)oc3cc(S(=O)(=O)NC4CCCC4)ccc32)CC1 (stereo not given) | -0.858% | 4.75% | 1.01% | 7.79% | -10.2%
CNC(=O)c1cc(C)nc2onc(C3CCCN(C(=O)Cc4ccc(OC)cc4)C3)c12 (stereo not given) | -7.74% | -3.94% | 1.02% | -12.7% | -4.47%
COc1cc(OC)cc(N2C(=O)c3cc4ccccc4n3CC2(C)C(=O)NC2CCCC2)c1 (stereo not given) | -7.15% | 3.98% | -7.62% | -3.65% | -1.35%
COc1cc2ncc(-c3ccccc3)nc2cc1OC | -21.9% | 0.364% | 4.06% | -17.8% | 1.28%
COc1ccc(N2CCN(C(=O)c3ccc4c(=O)nc5c(-c6cccc(C)c6)n[nH]n5c4c3)CC2)cc1 | -22.2% | -2.15% | -0.531% | -9.79% | -5.03%
Cc1ccccc1CNC(=O)C1(C)Cc2ccccc2C(=O)N1Cc1ccccc1 (stereo not given) | 1.71% | 0% | 0.657% | -5.14% | -0.185%
CCOC(=O)c1cc2n(n1)CC(C)(C(=O)NC1CCCCCC1)N(c1ccc(OCC)cc1)C2=O (stereo not given) | 1.63% | 0% | 0.833% | 5.12% | 1.38%
O=C(NCc1ccon1)C1CCCN(C2CCN(c3nc4ccccc4o3)CC2)C1 (stereo not given) | -2.51% | -1.12% | -2.06% | 0.478% | -0.01%
CCc1ccc(NC(=O)N2CCn3cccc3C2Cc2ccccc2)cc1 (stereo not given) | -8.64% | 2.89% | -7.61% | -6.91% | -6.08%
Cc1ccc(NC(=O)CCNc2c(C)nc3cnccn23)c(F)c1 | -3.87% | -3.5% | -1.04% | -2.76% | -4.1%
O=C(CCc1nnc2n(Cc3ccc(F)cc3)c(=O)c3ccccc3n12)NCc1ccccc1 | -5.75% | 4% | 2.69% | 9.48% | -3.05%
CC(C)NC(=O)Cn1nc2n(C)c(=O)c3ccc(C(=O)NC4CCCCC4)cc3n2c1=O | 5.21% | 0% | 6.12% | 5.16% | 8.51%
